Screen size: about 310,000 compounds; about 2,200 (0.71%) showed an effect of 50% or more. Effects have a minus sign here. The list shows a part of the results.

This experiment deals with human ether-à-go-go-related gene (hERG) potassium channel (human, UniProt Q12809). Nature of the experiment: primary screen, population patch clamp on CHO cells stably expressing hERG.
human ether-à-go-go-related gene (hERG) potassium channel, sequence (Q12809 whole entry, looked up): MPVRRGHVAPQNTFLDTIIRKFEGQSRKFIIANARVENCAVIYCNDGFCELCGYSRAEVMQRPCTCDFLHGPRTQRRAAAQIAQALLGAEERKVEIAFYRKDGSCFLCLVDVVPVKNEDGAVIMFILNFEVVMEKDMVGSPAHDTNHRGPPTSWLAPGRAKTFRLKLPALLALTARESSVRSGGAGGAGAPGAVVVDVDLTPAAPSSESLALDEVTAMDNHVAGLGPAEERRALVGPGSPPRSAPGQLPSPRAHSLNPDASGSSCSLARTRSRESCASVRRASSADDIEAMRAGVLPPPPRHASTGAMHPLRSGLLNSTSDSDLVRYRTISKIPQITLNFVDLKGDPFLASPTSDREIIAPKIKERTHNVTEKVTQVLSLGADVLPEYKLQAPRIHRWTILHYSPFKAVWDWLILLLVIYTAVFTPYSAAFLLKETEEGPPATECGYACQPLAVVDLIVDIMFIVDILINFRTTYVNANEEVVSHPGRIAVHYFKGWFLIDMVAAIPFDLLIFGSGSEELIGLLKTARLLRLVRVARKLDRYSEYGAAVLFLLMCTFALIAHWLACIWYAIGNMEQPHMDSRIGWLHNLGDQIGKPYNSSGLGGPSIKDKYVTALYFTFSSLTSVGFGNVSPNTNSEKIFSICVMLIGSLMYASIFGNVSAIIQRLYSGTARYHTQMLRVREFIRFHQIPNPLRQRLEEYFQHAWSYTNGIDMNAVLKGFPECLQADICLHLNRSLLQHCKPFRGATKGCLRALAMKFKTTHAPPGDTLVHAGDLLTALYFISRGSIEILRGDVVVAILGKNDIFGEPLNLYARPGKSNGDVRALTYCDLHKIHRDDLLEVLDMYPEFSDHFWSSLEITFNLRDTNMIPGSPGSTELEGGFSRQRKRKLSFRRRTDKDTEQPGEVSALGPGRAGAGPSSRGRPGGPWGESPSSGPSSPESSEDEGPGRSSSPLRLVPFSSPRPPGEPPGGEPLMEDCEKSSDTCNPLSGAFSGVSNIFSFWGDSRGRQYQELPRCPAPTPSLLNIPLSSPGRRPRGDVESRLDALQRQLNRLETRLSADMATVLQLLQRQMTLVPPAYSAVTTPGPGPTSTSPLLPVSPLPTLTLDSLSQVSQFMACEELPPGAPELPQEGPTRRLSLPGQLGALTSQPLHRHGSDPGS
In the case of `OCC[C@H]1C[C@H](O)[C@@H](O)[C@@]2(CCc3ccccc3CO2)O1`, the “hERG current change (%, negative = inhibition) at 1uM” value was determined as 11%.
To `CNc1nc(SC)nc2ccsc12` belongs 16.6%; to `O=C(CSc1n[nH]c(=O)[nH]c1=O)N/N=C/C=C\c1ccccc1`, 19.1%.
To `COc1ccc(CC(=O)Nc2cc(C)on2)cc1` belongs 6.62%; to `COc1cccc(CNc2nc3nc(C)cc(C)n3n2)c1`, 4.21%.
Next, `C/C(CC(=O)Nc1ccc2c(c1)OCO2)=N\NC(=O)OC(C)(C)C`: 6.49%.
Regarding `CCCCC(CCC(=O)Nc1ccn(-c2ccccc2)n1)C(=O)O` (stereo not shown), the “hERG current change (%, negative = inhibition) at 1uM” value worked out at 7.87%.
To `COc1cc(C(=O)OC(C)CN2CCCC2)cc(OC)c1OC.Cl` (stereo not shown) belongs 6.76%.
Next, `O=[N+]([O-])c1ccc(S(=O)(=O)Nc2ccc3c(c2)OCCO3)cc1`: 14%; `Cc1nc2ccccc2n(CC(=O)Nc2cc(Cl)cc(Cl)c2)c1=O`: 15.5%.
Turning to `Fc1ccc(Cn2nnc3ccccc32)cc1`, the “hERG current change (%, negative = inhibition) at 1uM” value is given as 12.8%.
Next, `COc1ccc(N=C2SCC(=O)N2c2ccc(OC)cc2)cc1`: 7.33%.
Next, `COC(CN(C)C(=O)C1CCC(CNS(=O)(=O)c2ccccc2)CC1)OC` (stereo not shown): 15.7%; `CCCn1c(-c2ccc(OC)cc2)nc2c(=O)n(C)c(=O)[nH]c21`: 14.8%.
To `CC1=NNC(=O)C1CCC(=O)N/N=C/C=C/c1ccccc1` (stereo not shown) belongs 11.3%; to `CCN(CC(=O)Nc1c(F)cccc1F)C(=O)c1nc2nccc(C)n2n1`, 4.62%.
Turning to `Oc1ccc(/C=N/NC(=S)NCCN2CCOCC2)c(O)c1`, the “hERG current change (%, negative = inhibition) at 1uM” value stood at 8.12%.
Next, `CN(C)CCCNc1nc(N)c([N+](=O)[O-])c(NCCO)n1`: 17%; `CC1CCCCN1C(=O)c1ccc(C(=O)Nc2ccc(F)cc2)cc1` (stereo not shown): 2.29%; `C[C@@H](CN=[N+]=[N-])CN1CC[C@H](C(C)(C)C)CCC1=O`: 9.49%.
As for `O=C(NCc1ccco1)c1ccc(N2CCOCC2)c([N+](=O)[O-])c1`, the “hERG current change (%, negative = inhibition) at 1uM” value is 12.3%.
As to `COc1ccc(-c2nc(NC(=O)C3CC(=O)N(c4ccc5c(c4)OCCO5)C3)sc2C)cc1` (stereo not shown), the “hERG current change (%, negative = inhibition) at 1uM” value amounted to 18%.
To `CCn1c(SCC(=O)NCCc2ccccc2)nc2c([nH]c3ccccc32)c1=O` belongs 16.4%; to `O=C1CN(C(=O)CSc2nc3ccccc3n2CCc2ccccc2)c2ccccc2N1`, 11.2%; to `Cc1ccc(CN2CCC(Oc3cccc(C(=O)NCc4cccnc4)c3)CC2)o1`, 8.19%.
To `CNS(=O)(=O)c1cc(OC)c(OC)cc1CC(=O)OC` belongs 10.5%; to `COc1ccc(S(=O)(=O)NCc2ccc3c(c2)cc(C)n3C)cc1`, 3.39%; to `Clc1cccc(-c2nc(NCCN3CCOCC3)c3ccccc3n2)c1`, -1.75%.
Next, `Cc1sc2nc(CN3CCOCC3)nc(N3CCC(C(N)=O)CC3)c2c1C`: 12.5%.
In the case of `Cc1cccc(C)c1N=Nc1c(C)cc(O)cc1C`, the “hERG current change (%, negative = inhibition) at 1uM” value was found to be 16.3%.
Next, `CC(C)Cn1c(CN2CCN(C)C(CCO)C2)nc2ccccc21` (stereo not shown): 12.7%; `Br.CCC1CC(CSC(=N)N)OC1=O` (stereo not shown): 8.09%; `O=C1C2C3C=CC(C2C(=O)N1CCO)C1C(=O)N(CCO)C(=O)C31` (stereo not shown): 4.85%.
With `CCOC(=O)COc1coc(CN2CCN(c3cccc(Cl)c3)CC2)cc1=O`, the “hERG current change (%, negative = inhibition) at 1uM” value stood at 7.82%.
Regarding `Cc1ccc(-c2cc(=O)c3ccc(F)cc3[nH]2)cc1`, the “hERG current change (%, negative = inhibition) at 1uM” value amounted to 6.71%.
Regarding `O=C(CC(C(=O)O)c1c(F)cccc1Cl)c1ccc(Cl)cc1` (stereo not shown), the “hERG current change (%, negative = inhibition) at 1uM” value amounted to 17.6%.
Turning to `CC(NCc1ccccc1Cl)C(O)c1ccccc1.Cl` (stereo not shown), the “hERG current change (%, negative = inhibition) at 1uM” value was 10.7%.
As for `CCN1CCN(C(=O)c2ccc3c(c2)N(Cc2ccccc2F)C(=O)c2ccccc2S3(=O)=O)CC1`, the “hERG current change (%, negative = inhibition) at 1uM” value turned out to be 11.8%.
As to `CSc1ccccc1OCc1cc(C(=O)NCc2cnc(C)cn2)no1`, the “hERG current change (%, negative = inhibition) at 1uM” value is 3.44%.
Next, `Cc1ccc(S(=O)(=O)N(C)C)cc1NC(=O)c1ccc2ccccc2n1`: 10.9%.
Consider `CCCN(CCC)C1=N/C(=C\c2ccco2)C(=O)N1c1ccccc1`, for which the “hERG current change (%, negative = inhibition) at 1uM” value is given as 3.36%.
Next, `Cc1ccc(N2C(=O)Nc3ccccc3C2(O)C(=O)NCCCOC(C)C)cc1C` (stereo not shown): 11.4%; `COCc1cc(C)nc(SCC(=O)Nc2cc3c(cc2C#N)OCO3)c1C#N`: 10.9%.
Next, `COc1cc(/C=N/N2C(C)CCCC2C)cc(Br)c1O` (stereo not shown): 9.73%; `CCCn1c(SCC(=O)Nc2nnc(-c3ccccc3)s2)nnc1-c1ccccn1`: 10%.
Take `Cc1cccc(-n2c(C)c(C)c3c(N)ncnc32)c1`: the “hERG current change (%, negative = inhibition) at 1uM” value came to 12.6%.

The values are drawn from PMC4336329 (PLoS ONE, 2015).
